# The other results are listed elsewhere or left out.
# Tests used:
# Assay in all cases: glycan array binding signal (z-score within array); higher = stronger binding
# Settings in all cases: glycan notation: IUPAC condensed, linker removed
# [1] = target: Gal(a1-3)Gal
# Outline: (§1)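 The binding signal is a Z-score computed within each array and averaged over linkers. Arrays of the same protein sequence at different concentrations or buffers were also averaged together. Data originate from 3228 arrays in the Consortium for Functional Glycomics database, kept only where the protein sequence was available.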
# [2] = target: Gal(a1-3)Gal(b1-3)GlcNAc
# Outline: as §1
# [3] = target: Gal(a1-3)Gal(b1-3)GlcNAc(b1-2)Man
# Outline: as §1
# [4] = target: Gal(a1-3)Gal(b1-3)GlcNAc(b1-2)Man(a1-3)[Gal(a1-3)Gal(b1-3)GlcNAc(b1-2)Man(a1-6)]Man(b1-4)GlcNAc(b1-4)GlcNAc
# Outline: as §1
# [5] = target: Gal(a1-3)Gal(b1-3)GlcNAc(b1-3)GalNAc
# Outline: as §1
# [6] = target: Gal(a1-3)Gal(b1-3)GlcNAc(b1-6)GalNAc
# Outline: as §1
# [7] = target: Gal(a1-3)Gal(b1-3)[Fuc(a1-4)]GlcNAc(b1-2)Man(a1-3)[Gal(a1-3)Gal(b1-3)[Fuc(a1-4)]GlcNAc(b1-2)Man(a1-6)]Man(b1-4)GlcNAc(b1-4)GlcNAc
# Outline: as §1
# [8] = target: Gal(a1-3)Gal(b1-4)Glc
# Outline: as §1
# [9] = target: Gal(a1-3)Gal(b1-4)GlcNAc
# Outline: as §1
# [10] = target: Gal(a1-3)Gal(b1-4)GlcNAc(b1-2)Man
# Outline: as §1
# [11] = target: Gal(a1-3)Gal(b1-4)GlcNAc(b1-2)Man(a1-3)[Gal(a1-3)Gal(b1-4)GlcNAc(b1-2)Man(a1-6)]Man(b1-4)GlcNAc(b1-4)GlcNAc
# Outline: as §1
# [12] = target: Gal(a1-3)Gal(b1-4)GlcNAc(b1-3)GalNAc
# Outline: as §1
# [13] = target: Gal(a1-3)Gal(b1-4)GlcNAc(b1-6)GalNAc
# Outline: as §1
# [14] = target: Gal(a1-3)Gal(b1-4)[Fuc(a1-3)]GlcNAc
# Outline: as §1
# [15] = target: Gal(a1-3)Gal(b1-4)[Fuc(a1-3)]GlcNAc(b1-2)Man(a1-3)[Gal(a1-3)Gal(b1-4)[Fuc(a1-3)]GlcNAc(b1-2)Man(a1-6)]Man(b1-4)GlcNAc(b1-4)GlcNAc
# Outline: as §1
# [16] = target: Gal(a1-3)GalNAc
# Outline: as §1
# [17] = target: Gal(a1-3)[Gal(a1-4)]Gal(b1-4)GlcNAc
# Outline: as §1
# [18] = target: Gal(a1-4)Gal(b1-3)GlcNAc(b1-2)Man(a1-3)[Gal(a1-4)Gal(b1-3)GlcNAc(b1-2)Man(a1-6)]Man(b1-4)GlcNAc(b1-4)GlcNAc
# Outline: as §1
# [19] = target: Gal(a1-4)Gal(b1-4)Glc
# Outline: as §1
# [20] = target: Gal(a1-4)Gal(b1-4)GlcNAc
# Outline: as §1
# [21] = target: Gal(a1-4)Gal(b1-4)GlcNAc(b1-2)Man(a1-3)[Gal(a1-4)Gal(b1-4)GlcNAc(b1-2)Man(a1-6)]Man(b1-4)GlcNAc(b1-4)GlcNAc
# Outline: as §1
# [22] = target: Gal(a1-4)Gal(b1-4)GlcNAc(b1-3)Gal(b1-4)Glc
# Outline: as §1
# [23] = target: Gal(a1-4)GlcNAc
# Outline: as §1
# [24] = target: Gal(a1-6)Glc
# Outline: as §1
# [25] = target: Gal(b1-2)Gal
# Outline: as §1
# [26] = target: Gal(b1-3)Gal
# Outline: as §1
# [27] = target: Gal(b1-3)Gal(b1-4)GlcNAc
# Outline: as §1
# [28] = target: Gal(b1-3)GalNAc
# Outline: as §1
# [29] = target: Gal(b1-3)GalNAc(a1-3)[Fuc(a1-2)]Gal(b1-4)Glc
# Outline: as §1
# [30] = target: Gal(b1-3)GalNAc(a1-3)[Fuc(a1-2)]Gal(b1-4)GlcNAc
# Outline: as §1
# [31] = target: Gal(b1-3)GalNAc(b1-3)Gal
# Outline: as §1
# [32] = target: Gal(b1-3)GalNAc(b1-3)Gal(a1-4)Gal(b1-4)Glc
# Outline: as §1
# [33] = target: Gal(b1-3)GalNAc(b1-4)Gal(b1-4)Glc
# Outline: as §1
# [34] = target: Gal(b1-3)GalNAc(b1-4)[Neu5Ac(a2-3)]Gal(b1-4)Glc
# Outline: as §1
# [35] = target: Gal(b1-3)GlcNAc
# Outline: as §1
# [36] = target: Gal(b1-3)GlcNAc(a1-3)Gal(b1-4)GlcNAc
# Outline: as §1
# [37] = target: Gal(b1-3)GlcNAc(a1-6)Gal(b1-4)GlcNAc
# Outline: as §1
# [38] = target: Gal(b1-3)GlcNAc(b1-2)Man
# Outline: as §1
binder,measurement,setting,value
"DC-Sign (Homo sapiens), Q9NNX6 (protein) MSDSKEPRLQQLGLLEEEQLRGLGFRQTRGYKSLAGCLGHGPLVLQLLSFTLLAGLLVQVSKVPSSISQEQSRQDAIYQNLTQLKAAVGELSEKSKLQEIYQELTQLKAAVGELPEKSKLQEIYQELTRLKAAVGELPEKSKLQEIYQELTWLKAAVGELPEKSKMQEIYQELTRLKAAVGELPEKSKQQEIYQELTRLKAAVGELPEKSKQQEIYQELTRLKAAVGELPEKSKQQEIYQELTQLKAAVERLCHPCPWEWTFFQGNCYFMSNSQRNWHDSITACKEVGAQLVVIKSAEEQNFLQLQSSRSNRFTWMGLSDLNQEGTWQWVDGSPLLPSFKQYWNRGEPNNVGEEDCAEFSGNGWNDDKCNLAKFWICKKSAASCSRDEEQFLSPAPATPNPPPA",glycan array binding signal (z-score),[1],-0.208
same,glycan array binding signal (z-score),[2],-0.186
same,glycan array binding signal (z-score),[3],-0.191
same,glycan array binding signal (z-score),[4],-0.178
same,glycan array binding signal (z-score),[5],-0.173
same,glycan array binding signal (z-score),[6],-0.178
same,glycan array binding signal (z-score),[7],-0.018
same,glycan array binding signal (z-score),[8],-0.198
same,glycan array binding signal (z-score),[9],-0.165
same,glycan array binding signal (z-score),[10],-0.192
same,glycan array binding signal (z-score),[11],-0.168
same,glycan array binding signal (z-score),[12],-0.172
same,glycan array binding signal (z-score),[13],-0.135
same,glycan array binding signal (z-score),[14],-0.154
same,glycan array binding signal (z-score),[15],-0.165
same,glycan array binding signal (z-score),[16],-0.169
same,glycan array binding signal (z-score),[17],-0.089
same,glycan array binding signal (z-score),[18],-0.131
same,glycan array binding signal (z-score),[19],-0.217
same,glycan array binding signal (z-score),[20],-0.167
same,glycan array binding signal (z-score),[21],-0.171
same,glycan array binding signal (z-score),[22],-0.187
same,glycan array binding signal (z-score),[23],-0.192
same,glycan array binding signal (z-score),[24],-0.193
same,glycan array binding signal (z-score),[25],-0.177
same,glycan array binding signal (z-score),[26],-0.191
same,glycan array binding signal (z-score),[27],-0.083
same,glycan array binding signal (z-score),[28],-0.179
same,glycan array binding signal (z-score),[29],-0.149
same,glycan array binding signal (z-score),[30],-0.152
same,glycan array binding signal (z-score),[31],-0.208
same,glycan array binding signal (z-score),[32],-0.159
same,glycan array binding signal (z-score),[33],-0.09
same,glycan array binding signal (z-score),[34],-0.207
same,glycan array binding signal (z-score),[35],-0.197
same,glycan array binding signal (z-score),[36],-0.14
same,glycan array binding signal (z-score),[37],-0.047
same,glycan array binding signal (z-score),[38],-0.084

# — the supplement of paper PMC8728848
